Assay results published in paper PMC10726135.
This is one part of the list. At the low end of the ranking the order means little. The protein was read in a cell extract, so binding may be indirect.

Molecular target: T1, HNF4alpha8 (COS-7 nuclear extract) (UniProt P41235-5)
T1 sequence: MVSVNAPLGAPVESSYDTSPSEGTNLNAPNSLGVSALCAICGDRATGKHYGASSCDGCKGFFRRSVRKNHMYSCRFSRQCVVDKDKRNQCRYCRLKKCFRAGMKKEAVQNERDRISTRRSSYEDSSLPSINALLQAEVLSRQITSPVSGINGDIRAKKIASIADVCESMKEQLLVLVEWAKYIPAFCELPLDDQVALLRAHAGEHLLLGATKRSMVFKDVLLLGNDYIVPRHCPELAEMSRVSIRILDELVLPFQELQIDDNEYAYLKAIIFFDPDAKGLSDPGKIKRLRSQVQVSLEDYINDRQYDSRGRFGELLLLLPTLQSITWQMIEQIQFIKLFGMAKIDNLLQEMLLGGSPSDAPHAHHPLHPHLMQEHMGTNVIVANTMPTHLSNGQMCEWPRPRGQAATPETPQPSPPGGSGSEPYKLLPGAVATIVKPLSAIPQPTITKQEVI
Test: protein-binding microarray
Details: COS-7 nuclear extract on double-stranded Agilent 4x180k PBM; binding buffer, salt, pH and temperature not given; high values mean tight binding; double strand, one strand shown; sequences stand for … in …GCCTAGGGAGATTAGAGTATCGGTCGA

Sequence | binding signal (log2 normalized intensity)
TGCTCCCTCCTTCAGTGCTCTGTTGAGTCA | 0.343
TCTGTCCCATGGTGTACAAGGAGTCTCCAC | 0.988
GGTTCAGAGACCTGGCGGATAGATAGAATC | -0.983
ACGCCGTCTCAAAAAAAAAAAAAAGGCAGT | -1.29
TCAGGGTAAATCCCGTCCCTGCCAAAGGTC | 5.45
GGTGATTTCAGACTATTTTATTTTCCCCCT | 4.03
CTGGCTGAAGACCTGTACAGGGACTGTGTC | 0.454
CGTAATGTGTCCCCACATCTGTGAAAACGA | 1.51
GGGTGTCTGCTGTTCTTGCCTGATAGCATC | -0.0171
TGCCAAGGAGCCTCTGCAACCTTTGCTCTC | 6.62
AATAAGGATTATCACTGAATCGAGGCTATT | -1.32
CACAGCACAAGATAAGATAGGAATTTGAGT | -1.33
TATTCCTTGTCCTTGACCCTTCCTCCCATT | 4.01
CCACAGAGTTGCTGTGACAGACAGGTGAGA | -1.28
TAATTGCCCTTTGCCCTTTGCCCAACCCTC | 7.74
TTCCCCTTTGACTTAGGATCAGTAGCATTA | 1.17
AGAACTGGGCGAGCCCTCTGATCTGACCCC | 6.3
GCTTGAAAAGAAGAAAAAACAGGTGTTCTT | -0.629
TTGTCCCTTTCAAGGGCTTACAACTCTAAG | 0.699
TGATAACATGAGGTAGAGGGACACTGATAA | -1.29
CTCCTGACCTTTGGACTTGATAGAGTTTAA | 8.25
TGCGTTTCAAAGCCAGGACTTTCAGGAATG | -1.22
GTGCTTTCTGTCCTCTCAAAGTCCACCCGG | 4.43
TGCTTCAGTCTCCCAAGTAGCTCATTTATT | 0.781
AACACCTGGGTCTGACCTCTTTCAAGCCTG | 1.64

Sequence | binding signal (log2 normalized intensity)
AAAGCCATCAGCACTGGTTCAAAGTGTAGC | 1.25
AAGTCCCCTTTCCTCATATTTTGCATACCA | 1.32
TCCACAGAGTTCATAATTTTGGACTTTGTG | 7.1
GCCTGGCTGGCCTGGCAAATCTCTAAATTC | -1.43
CAAACATTTGGAAAACATCATTCCGTGACT | -1.29
ACTATTTTCAAAGGTCAACATACAGAGGCT | 2.59
AAGCGGACAAACCAGTCCCATCTGTGCTCA | -1.44
CTCCAAACAAATTGAGAAAGATTAAGAGGC | -1.38
CCGAGGCTGACAGCAGAGAGTTTTCCTTGG | -1.25
AATGAATGTCACTTTCTGACTGGCCTGGGA | 1.21
GGCCCCAGTGCACGTGCATGAGGCCCCTTG | 2.48
GTTTCCCTCTCTCTCTCTCTCTCACACACA | 1.03
TCTCTCCCACTTATCTCAATCCTGCTCAAT | -1.18
GGGTAGATAAGGATGGATCAAAGGAAACTG | -1.1
TCTATCAGTACAAATAAACCTTTGACCAAT | 4.88
TAATGGAATTGACATTCAATTGCAAGCTTA | -1.41
GGAGGGAACAGCAAGACTTTGGCCCTGCAG | 0.278
TAGCTACTGCAATAAAGTGGGTTGAAGTTC | 1.71
AGTCCAGAAATAGCATCACGAAAGGCAACA | -0.747
TATGTTTGTGCTGGTTACTAAACACTTACA | -1.35
CGGCGGCCCAGTCAAACCCCGCGCTCCAGG | -1.22
ACAAATGTCAGACAAACAGACTTCACACTA | -1.24
AGATGGTCTCAGGTGGAGATAAGGAATTTG | -1.15
ATACTTAGGATTTTTGTGCCTCTTTGGTGA | 0.277
GATGCATGCACTTCATTGTGCACCCACTTG | -0.982

Sequence | binding signal (log2 normalized intensity)
GAACCCAAGCAATCTGGCTGCAGAGTCCAA | 2.97
CTTTTGTTTTTCTTCAAGGAGGTGAACTTT | 5.95
CCCCTGCACAGTCAAAAATTTGTGTGTAAC | 1.91
CTCTCCCTCCTCTCTGAGCAGTCAAACTGG | 1.89
GGTCAAGCTAAGCACAACTGATTCTATTTA | -1.27
ACTGCCCTCTGCCTTTCAGGCAGGAGACGA | -1.18
GGGTTCTTGGATCCTCAGGGTTCATAGATG | 2.22
TTCCCTCTCTCCTGGTTTGGGGCCTAAATG | 1.08
AAGTTTGCAAACAGTAAAGAACAAACTTCC | -1
TGAATGCCTGGGCATGGCTGTGTTCCAGTA | 0.596
GGTACCCTGGATACGGAAGGTGCTCAGAAA | -1.4
CAACGGAGGTGGGAAAGACTTAGGATCTAG | -1.41
GTCCCGTTATGGCACCAAGAAACCTTTCCC | -1.21
CTACAGCCCACAATTGCATGTTCAACAGAC | -1.21
TATGCCCAGAGCTTTGTTCTGTTCCAGTTA | -0.0226
GAGTAAAGTATCCAGTTAATCCCAGAAGAA | -1.15
TGCGCAAACATAAAGGCAAAGGTCAAGGAC | 4.9
GTTTCCCTGTTTGCTTCTGCCCCCTGGAGG | 3.5
TTGCTGCTCTCGCCTGGAAGTCCATTTCCC | 1.87
GCTAAACAATTAAAGAACTCTTCATTATGG | -1.07
GAAGGCCCCAATTGCCAAGGGGGTGGTGAA | -1.35
TCATTACCTCCCTGGGCATGTCTGCTCCCT | 1.73
TATGGCGAAAAAGGAAATATCTTCCCATAA | -1.33
CTCTGCACCCTTCCCTGAGTTTCCATTAAC | 1.46
AGCCTTAGGTATGCCCCATGGTAAGAACTA | 0.685

Sequence | binding signal (log2 normalized intensity)
TTTCACAAATCATTACTATCTGCTGGGGGC | 0.648
CTTGTATCGCCTGAATGACCACATGCCCTC | 3.1
GGGAACTCCCTGACCCCTAGCACTTCCCGA | 3.73
ATTGCCAATATCTGCCATCTACTAAGTGCT | -1.39
TGAATCCTCTTTGAGTCTGGTGTTCTCTTG | 1.65
TTTGCTTAGTCTTATCTGAGGTGCCCTTAC | 2.96
GGTCACAGTAACAGGGAGTCTGTTGCAAGC | -0.937
AACAGCAGCCACATTCCATGAGCTGGCCTC | -1.44
ACCATCTCCTTTTGTGAGAGGTCAATGTCC | 7.14
CTCCTGCCCTACTCCCTTAAATAATGCATA | 0.789
CCAACTCCCCTCCCAAGGCAGCAATCCCCT | 4.9
GCTTGAAAACACAACAAAAGAACTCAAGAG | -1.34
GAGCACAGAAGGAGGGCGGGGAGTCTCCTG | -1.26
CACGTAAATAAGGATAAAGTAAGGTGAAGC | -1.39
TGCTCCAGGCAAAGGGCATAACATGAGGCA | 0.359
AACAAACTTTGCTGTGTCCCACAGGGAAAG | -1.09
AACATCTTTGGTATGGACTGATATTCAAAC | 1.24
CACACCACACTCTCCTCCTGGCCTCCACTC | -1.17
CTGTGCTTTGGCCAAATAATAGCATTGTAG | 0.31
GCTTCTCTTGGACCTCAATGTGCTCATCCA | 1.42
GGAAGGTGCCAAGCATTCTAATCATTGAGG | -1.35
ATCCTTATCTTGTAGAAAAGTGCATGGATT | 1.09
CCCACTCTTAGCAGAGATTCCTGCTGAGTT | -1.3
GGAGTTGGAACGGGGGCAAGGGTCAGAGTA | 5.28
ACGTGGCAATCATTCTGTCTGCCTTCAGGC | -1.23

Sequence | binding signal (log2 normalized intensity)
AGCCTTCCTGTTCAACTATTCCTCGACCTT | 2.71
ATCCAGTAGAGGGCATAGCAGATAAGCATT | -1.23
CCCTTTGCACATGCCCCTCCCAGGGACACA | 3.73
GCTCCAGGTAGTCCCTGCTCCACGCAAACA | -1.33
GTTGCCTATGCCCTTTGAAATTCTGGACTT | 3.45
CAGGGTGGACTTTAAACATTCCCACCTAAG | 3.87
GAACGCTCACAGAAAGAAGAGACAGCTGGG | -1.32
TATATGTTTTGCAACAAAGGCACTTTGATA | 1.8
GTGTGGCATCTTGGGGTCAAGGCCTTTAAG | 2.33
AATTCTTTGCTGTGGTAGGCTGTCCTGTGC | 1.84
TGACTTCCAATTTACTTTTTAAACACCTAG | -1.45
GTTCTGCCATCTCGCAGAAAGTGGCCGGAC | 1.64
GCTTAGGACTGCAGGGGGCCAAGGGATACC | -1.25
CTCTGCAGTAACTGTCATGGATGACCTCTT | 5.1
CAGCAAACAGGTCCTGCTGGTTTGCCATTT | 0.235
CCGGACACAAAAGCTGCTGCCAAGCGTCAG | -1.44
AATACGACCTTTGGACAGGGTGACGTCATT | 6.84
CAAACACAACATTGAAAGCGATCTTTGCAT | -0.637
TTACATGGATTAGTCCCTTTTCACGCTAAG | -1.33
TGGAGCCAGATGCACACAGGATCAATAAAA | -1.28
ACTCTCACCTTGGGGGCTGCTGGGGGCACA | 1.1
TCCATAGTTCCGAGTTCCCTCGATTATTTC | -0.0853
TTTCCTTCTAGCTCCCCAATAGACATAACT | 2.96
CCAGCGCAGGGGCTTCTGCTGAGGGGGCAG | -0.347
TGAGCATTCCAAAAAGCTTTTGTCATGACC | 1.7

Sequence | binding signal (log2 normalized intensity)
TCTTATCTGGGGGCCATTCCTCTATCTCCC | 0.659
TGAGGGAGGGCACAGGCAACAGAGGAGCAT | -1.29
TGAGGTGCAGGACAAAGTGTGCACTTTGCA | 2.54
AAAGAAGCTACTAGCAAATCTGCCCAACCT | -1.19
CAAAGGCATTTCTGGACTTGGATCAGCCTG | 2.49
AGGAGGCTGAAGACTTTGCACCAAGGAGAC | 0.928
GATAAGGATCTAAGAACTAACATGGATCTA | -1.33
AGTTATATCTTACCTCCTTCTCCCCCATGC | 4.73
AGGACTTTGTGATTACATTGAGTCCACTGA | 2.4
TGGGTAAACAGACCTCTCTCTCCCCAGACA | 3.14
CACAGACTTTGGAATCACAATGATAACAGC | 0.731
GAGAGGGTTAAAAACCAGAATGACAAGCTG | -1.35
AGGCAGGGGATGAGATCTGAAGATAAATGC | -1.21
AAGAAAGAGACCTTTACCCTGACCTGTCAA | 3.36
CCCTTTAGTGCCTGGATCTTGGAACAGGTC | 1.97
TTACAGATAAGCAGAAGGTCAGGTGAATCA | -0.811
TTCTAAAAATAGCCTTACTTTAAAGCTGAT | -1.09
CCAGGAGCCCCACGTTTATCTTGGAACCTC | 1.45
TGTGCTCCCGACTGCTCCACCAGCGCGTGC | -1.33
GATCATAATCCCTTATGACGGACAAAGGGC | 2.17
